Data published in publication PMC4336329 (PLoS ONE, 2015).
The campaign covered roughly 310,000 compounds. About 14,000 (4.5%) showed an effect of 50% or more. The effect is printed as a negative number. This is one part of the list.

The compounds below were run against human ether-à-go-go-related gene (hERG) potassium channel (human, UniProt Q12809) (assay: primary screen, population patch clamp on CHO cells stably expressing hERG).
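Note: peak tail current of the secondary pulse compared with the same well before compound.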

Sequence of human ether-à-go-go-related gene (hERG) potassium channel (Q12809 whole entry, looked up): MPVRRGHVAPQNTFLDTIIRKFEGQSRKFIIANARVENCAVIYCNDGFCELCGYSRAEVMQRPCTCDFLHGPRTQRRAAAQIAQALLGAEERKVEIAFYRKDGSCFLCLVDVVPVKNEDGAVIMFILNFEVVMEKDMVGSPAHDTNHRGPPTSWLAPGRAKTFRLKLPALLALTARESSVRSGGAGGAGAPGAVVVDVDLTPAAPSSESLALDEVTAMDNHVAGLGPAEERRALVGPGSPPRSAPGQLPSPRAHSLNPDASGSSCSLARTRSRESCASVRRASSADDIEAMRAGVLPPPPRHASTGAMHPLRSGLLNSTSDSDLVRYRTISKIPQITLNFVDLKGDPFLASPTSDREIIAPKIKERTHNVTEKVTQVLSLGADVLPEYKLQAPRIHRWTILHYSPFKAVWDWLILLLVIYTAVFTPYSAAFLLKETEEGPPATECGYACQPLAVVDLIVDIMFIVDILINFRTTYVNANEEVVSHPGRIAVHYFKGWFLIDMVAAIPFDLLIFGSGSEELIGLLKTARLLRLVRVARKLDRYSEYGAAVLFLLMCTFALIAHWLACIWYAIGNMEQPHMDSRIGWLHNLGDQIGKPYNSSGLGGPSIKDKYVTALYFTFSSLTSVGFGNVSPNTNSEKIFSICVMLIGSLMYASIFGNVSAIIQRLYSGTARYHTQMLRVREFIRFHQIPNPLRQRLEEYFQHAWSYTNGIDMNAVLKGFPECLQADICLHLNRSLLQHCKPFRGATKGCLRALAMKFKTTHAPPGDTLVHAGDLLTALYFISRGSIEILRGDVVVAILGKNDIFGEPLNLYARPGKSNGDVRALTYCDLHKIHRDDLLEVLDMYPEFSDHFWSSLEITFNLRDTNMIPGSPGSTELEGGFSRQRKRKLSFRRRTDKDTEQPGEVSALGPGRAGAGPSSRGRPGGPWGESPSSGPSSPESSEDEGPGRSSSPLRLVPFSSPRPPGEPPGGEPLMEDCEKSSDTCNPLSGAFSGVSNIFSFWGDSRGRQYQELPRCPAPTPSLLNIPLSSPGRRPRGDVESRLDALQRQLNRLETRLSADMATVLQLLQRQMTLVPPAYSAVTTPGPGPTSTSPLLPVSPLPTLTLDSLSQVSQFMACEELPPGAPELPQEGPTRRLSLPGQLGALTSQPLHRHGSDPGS

SMILES	hERG current change (%, negative = inhibition) at 10uM
CC1c2cc3c(cc2CCN1C(=O)c1ccc(Cl)cc1)OCCCO3 (stereo not drawn)	-21.3%
Cc1cccc(OC(C)C(=O)Nc2ccc(N3CCCCC3)cc2)c1 (stereo not drawn)	-9.07%
Cc1ccc(NC(=O)N2CCN(c3ccccn3)CC2)cc1	-1.45%
Cc1ccc(Cl)cc1N1CCN(S(=O)(=O)c2ccc3c(c2)NC(=O)C(C)C(=O)N3)CC1 (stereo not drawn)	6.31%
CC(=O)Nc1ccc(S(=O)(=O)Nc2nccc(C3Cc4ccccc4C(=O)O3)n2)cc1 (stereo not drawn)	7.05%
CC(C)=C1C2CCC1C1C(=O)N(c3ccc(C)c(C)c3)C(=O)C21 (stereo not drawn)	3.55%
CN(C)c1ccc(N2C(=O)CC(Sc3ccccc3C(=O)O)C2=O)cc1 (stereo not drawn)	-4.69%
CC(=O)c1sc2nc(=O)c(C)nn2c1C	-0.703%
c1ccc(-c2nn3c(-c4ccccc4)nnc3s2)cc1	19.5%
Cc1ccc(NC(=O)CSc2nnc(-c3ccco3)o2)cc1	2.91%
CC(C)(C)c1csc(NC(=O)c2ccccc2O)n1	-0.0514%
Cc1c(CN2CCCC(C)C2)c(O)n(CCO)c(=O)c1C#N (stereo not drawn)	27.5%
CCCOc1ccccc1C1SCC(=O)Nc2c1c(=O)[nH]n2C(C)CCC (stereo not drawn)	6.88%
Cc1ccccc1-c1nc2c3ccccc3nc(=S)n2[nH]1	17.8%
Cc1ccccc1Cn1c([N+](=O)[O-])cnc1C	-5.83%
CCN1CCCC1CNC(=O)c1ccc2c(=O)n(CCOC)c(=O)[nH]c2c1 (stereo not drawn)	23.4%
CC1(C)CC2(CC(c3ccccc3F)c3ccc(O)c(O)c3O2)NC(=S)N1 (stereo not drawn)	19.1%
O=C(O)C1C(c2ccccc2)C(C(=O)OCc2ccco2)C1c1ccccc1 (stereo not drawn)	-6.52%
Cc1ccc2oc(-c3cccc(NC(=O)C4CCCO4)c3)nc2c1 (stereo not drawn)	-32%
COC(=O)C1=C(NC(=O)COc2ccc3ccccc3c2)CCS1	17.1%
CC(C)(C)c1ccc(/C=N/NC(=O)C(=O)NCCCN2CCOCC2)cc1	-13.3%
CC1=C(C(=O)OCC(C)C)C(c2ccsc2)NC(=O)N1 (stereo not drawn)	0.67%
CNC(=O)c1ccc(-c2cc(C(F)(F)F)nn2C)s1	17.6%

SMILES	hERG current change (%, negative = inhibition) at 10uM
CCOC(=O)C1=C(C)C(c2ccccc2OC)NC(=S)N1 (stereo not drawn)	-11.3%
O=C(N/N=C/c1c(Cl)cccc1Cl)c1cccc(F)c1	3.24%
Cc1ccnc(NC(=O)CCCc2c[nH]c3ccccc23)c1	7.77%
COc1ccc2c(c1)O[C@@H](c1cccc(C(F)(F)F)c1)[C@H](O)C2=O	-2.5%
CCOC(=O)c1sc(=NC(=O)c2ccc(C)c(C)c2)n(C)c1C	18.5%
CCC1=Nc2ccccc2NC2=C1C(=O)CCC2.Cl	-6.53%
CCc1ccc(OCc2n[nH]c(=S)n2C(C)CCCC(C)C)cc1 (stereo not drawn)	14.1%
CC(C)c1ccc(S(=O)(=O)N2CCC3(CC2)OCCO3)cc1	15.6%
CCCS(=O)(=O)N1CCN(S(=O)(=O)c2ccc(F)cc2)CC1	10.6%
CCOc1ccccc1N1CCN(CC(=O)Nc2nnc(CC)s2)CC1	8.32%
Cn1c(=O)c2c(ncn2Cc2ccccc2)n(C)c1=O	-1.19%
O=C(NCc1ccc(Cl)cc1)c1ccc(COCC(F)(F)F)o1	-18.7%
O=C1C=C(c2ccccc2C(F)(F)F)C[C@@H](c2ccc3c(c2)OCO3)C1	-1.19%
COc1ccccc1CCNC(=O)c1cccc(S(=O)(=O)N2CCc3ccccc3C2)c1	-35.5%
COc1cc(C(=O)NCC(c2cccs2)N2CCc3ccccc32)cc(OC)c1OC (stereo not drawn)	1.49%
CCN(CC)S(=O)(=O)c1ccc2oc(SCC(=O)NCc3ccccc3)nc2c1	-7.48%
CCOc1ccc(N(CC(=O)NCc2ccccc2OC)S(C)(=O)=O)cc1	-16.2%
O=c1[nH]c(=O)n(-c2ccccc2)c2c1C(C(F)(F)F)(C(F)(F)F)N=C(CCC1CCCCC1)N2	-3.44%
COc1ccc(-c2ccc(SCC(=O)c3cccs3)nn2)cc1	1.59%
COc1ccc(/C=N/Nc2ccc([N+](=O)[O-])cc2S(=O)(=O)N2CCN(C)CC2)cc1	9.15%
COc1ccc(CNS(=O)(=O)NCc2ccc(C)cc2)cc1	19.1%
Cc1c(NC(=O)CCc2ccccc2)cccc1[N+](=O)[O-]	25.3%
